From paper PMC3519786, “Novel Interactions between FOXM1 and CDC25A Regulate the Cell Cycle” (PLoS ONE, 2012) come the findings set out here.

Common to all, as to test: two-hybrid; mammalian two-hybrid (Checkmate, Promega) in U2OS; bait pBIND (GAL4 DNA-binding domain)-FOXM1, prey pACT (VP16 activation domain)-CDC25A, reporter pG5-luc; firefly normalised to Renilla luciferase; 2 days
In assay [1] the target is T1, GAL4-FOXM1 N-terminal fragment (amino acids 1-235) (human) (UniProt Q08050).
T1 sequence: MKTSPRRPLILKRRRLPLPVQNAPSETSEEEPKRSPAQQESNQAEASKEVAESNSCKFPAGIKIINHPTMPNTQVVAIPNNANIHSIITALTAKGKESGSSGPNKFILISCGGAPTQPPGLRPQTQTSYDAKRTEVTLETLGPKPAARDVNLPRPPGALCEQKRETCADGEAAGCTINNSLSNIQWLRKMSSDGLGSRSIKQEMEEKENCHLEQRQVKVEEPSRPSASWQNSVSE

The target of assay [2] is T2, GAL4-FOXM1 (human) (UniProt Q08050).
T2 sequence: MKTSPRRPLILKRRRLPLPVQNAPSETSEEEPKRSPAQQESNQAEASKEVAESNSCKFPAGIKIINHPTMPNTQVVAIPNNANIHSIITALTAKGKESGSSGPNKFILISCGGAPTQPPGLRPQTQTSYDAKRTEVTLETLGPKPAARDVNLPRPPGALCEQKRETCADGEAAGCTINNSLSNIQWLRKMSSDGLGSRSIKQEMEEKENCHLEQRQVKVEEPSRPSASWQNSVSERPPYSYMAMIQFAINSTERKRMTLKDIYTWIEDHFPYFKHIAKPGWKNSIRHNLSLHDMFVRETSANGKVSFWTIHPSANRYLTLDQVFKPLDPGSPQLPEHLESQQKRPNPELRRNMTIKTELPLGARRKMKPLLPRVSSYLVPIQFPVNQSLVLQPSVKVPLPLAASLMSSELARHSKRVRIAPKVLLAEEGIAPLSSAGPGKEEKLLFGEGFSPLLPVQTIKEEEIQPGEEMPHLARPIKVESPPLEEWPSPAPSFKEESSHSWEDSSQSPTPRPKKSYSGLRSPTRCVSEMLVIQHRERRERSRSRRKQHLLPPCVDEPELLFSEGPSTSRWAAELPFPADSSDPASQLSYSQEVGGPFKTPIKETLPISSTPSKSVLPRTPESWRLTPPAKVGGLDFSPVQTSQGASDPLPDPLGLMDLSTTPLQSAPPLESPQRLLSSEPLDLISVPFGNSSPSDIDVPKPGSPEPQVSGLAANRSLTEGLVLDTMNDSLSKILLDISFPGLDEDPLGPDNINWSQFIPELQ

For assay [3], the target named is T3, GAL4-FOXM1 T611A (human) (UniProt Q08050).
T3 sequence: T2 sequence with T611A

For assay [4], the target named is T4, GAL4-FOXM1 T620A (human) (UniProt Q08050).
T4 sequence: T2 sequence with T620A

Where a chain is given by its changes, count along the chain named. These are yes or no findings as the source states them, for the method shown. Some entries that bind do so weakly or less than the wild type.

B1: VP16-CDC25A (natural protein, UniProt P30304 1-524, looked up)
chain: MELGPEPPHRRRLLFACSPPPASQPVVKALFGASAAGGLSPVTNLTVTMDQLQGLGSDYEQPLEVKNNSNLQRMGSSESTDSGFCLDSPGPLDSKENLENPMRRIHSLPQKLLGCSPALKRSHSDSLDHDIFQLIDPDENKENEAFEFKKPVRPVSRGCLHSHGLQEGKDLFTQRQNSAPARMLSSNERDSSEPGNFIPLFTPQSPVTATLSDEDDGFVDLLDGENLKNEEETPSCMASLWTAPLVMRTTNLDNRCKLFDSPSLCSSSTRSVLKRPERSQEESPPGSTKRRKSMSGASPKESTNPEKAHETLHQSLSLASSPKGTIENILDNDPRDLIGDFSKGYLFHTVAGKHQDLKYISPEIMASVLNGKFANLIKEFVIIDCRYPYEYEGGHIKGAVNLHMEEEVEDFLLKKPIVPTDGKRVIVVFHCEFSSERGPRMCRYVRERDRLGNEYPKLHYPELYVLKGGYKEFFMKCQSYCEPPSYRPMHHEDFKEDLKKFRTKSRTWAGEKSKREMYSRLKKL
notes: CDC25A (cell division cycle 25A) dual phosphatase; plasmid bought from Origene; also called pACT-CDC25A; wild-type CDC25A; source: mammalian two-hybrid fusion, U2OS, transfected
For B1, the binding entry in assay [1] is recorded as “no binding”; in assay [2] it was “binds”; in assay [3], “binds”; in assay [4] it was “binds”.
